# Source: ChEMBL document CHEMBL1201862, “PubChem BioAssay data set” (2004)
#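 All cell lines were grown in 96-well plates and treated with compound for 48 hours. At the GI50, growth is halved.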 Calls of active or inactive are those of the source. Cut-off read from the data, not from the text of the source: active = GI50 up to about 1.1 µM and inactive = higher.
# How the values were obtained:
# Test in all cases: DTP human tumour cell line panel, 48 h
# Hs-578T = tested on: Hs-578T
# SF-295 = tested on: SF-295
# MDA-MB-231 = tested on: MDA-MB-231
# NCI/ADR-RES = tested on: NCI/ADR-RES
# OVCAR-3 = tested on: OVCAR-3
# HCT-116 = tested on: HCT-116
# SW-620 = tested on: SW-620
# SK-MEL-5 = tested on: SK-MEL-5
# KM12 = tested on: KM12
# SNB-75 = tested on: SNB-75
# LOX IMVI = tested on: LOX IMVI
# HCC 2998 = tested on: HCC 2998
# RPMI-8226 = tested on: RPMI-8226
# HOP-62 = tested on: HOP-62
# SK-MEL-2 = tested on: SK-MEL-2
# T47D = tested on: T47D
# MCF7 = tested on: MCF7
# HL-60 = tested on: HL-60
# SF-539 = tested on: SF-539
# DU-145 = tested on: DU-145
# M14 = tested on: M14
# A498 = tested on: A498
# HOP-92 = tested on: HOP-92
# A549 = tested on: A549
# SF-268 = tested on: SF-268
# OVCAR-5 = tested on: OVCAR-5
# PC-3 = tested on: PC-3
# SK-OV-3 = tested on: SK-OV-3
# U-251 = tested on: U-251
# 786-0 = tested on: 786-0
# NCI-H23 = tested on: NCI-H23
# MDA-MB-435 = tested on: MDA-MB-435
# ACHN = tested on: ACHN
# TK-10 = tested on: TK-10
# UACC-62 = tested on: UACC-62
# K562 = tested on: K562
# COLO 205 = tested on: COLO 205
# RXF 393 = tested on: RXF 393
# SR = tested on: SR
# HCT-15 = tested on: HCT-15
# CAKI-1 = tested on: CAKI-1
# SK-MEL-28 = tested on: SK-MEL-28
# OVCAR-4 = tested on: OVCAR-4
# UO-31 = tested on: UO-31
# NCI-H460 = tested on: NCI-H460
# CCRF-CEM = tested on: CCRF-CEM
# MOLT-4 = tested on: MOLT-4
compound,measurement,setting,value
O=C1Cc2c([nH]c3ccc(C(F)(F)F)cc23)-c2ccccc2N1,GI50,Hs-578T,inactive: > 100 µM
same,GI50,SF-295,inactive: 6.12 µM
same,GI50,MDA-MB-231,inactive: > 100 µM
same,GI50,NCI/ADR-RES,inactive: > 100 µM
same,GI50,OVCAR-3,inactive: 6.32 µM
same,GI50,HCT-116,inactive: 3.67 µM
same,GI50,SW-620,inactive: > 100 µM
same,GI50,SK-MEL-5,inactive: > 100 µM
same,GI50,KM12,inactive: 4.69 µM
same,GI50,SNB-75,inactive: > 100 µM
same,GI50,LOX IMVI,inactive: > 100 µM
same,GI50,HCC 2998,inactive: > 100 µM
same,GI50,RPMI-8226,inactive: > 100 µM
same,GI50,HOP-62,inactive: > 100 µM
same,GI50,SK-MEL-2,inactive: > 100 µM
same,GI50,T47D,inactive: > 100 µM
same,GI50,MCF7,inactive: > 100 µM
same,GI50,HL-60,inactive: > 100 µM
same,GI50,SF-539,inactive: > 100 µM
same,GI50,DU-145,inactive: > 100 µM
same,GI50,M14,inactive: > 100 µM
same,GI50,A498,inactive: > 100 µM
same,GI50,HOP-92,inactive: > 100 µM
same,GI50,A549,inactive: 20.6 µM
same,GI50,SF-268,inactive: > 100 µM
same,GI50,OVCAR-5,inactive: > 100 µM
same,GI50,PC-3,inactive: > 100 µM
same,GI50,SK-OV-3,inactive: 48 µM
same,GI50,U-251,inactive: > 100 µM
same,GI50,786-0,inactive: > 100 µM
same,GI50,NCI-H23,inactive: > 100 µM
same,GI50,MDA-MB-435,inactive: > 100 µM
same,GI50,ACHN,inactive: > 100 µM
same,GI50,TK-10,inactive: > 100 µM
same,GI50,UACC-62,inactive: > 100 µM
same,GI50,K562,inactive: > 100 µM
same,GI50,COLO 205,inactive: > 100 µM
same,GI50,RXF 393,inactive: 83 µM
same,GI50,SR,inactive: 31.3 µM
same,GI50,HCT-15,> 100 µM
same,GI50,CAKI-1,inactive: > 100 µM
same,GI50,SK-MEL-28,inactive: > 100 µM
same,GI50,OVCAR-4,inactive: > 100 µM
same,GI50,UO-31,inactive: > 100 µM
same,GI50,NCI-H460,inactive: > 100 µM
same,GI50,CCRF-CEM,inactive: > 100 µM
same,GI50,MOLT-4,inactive: > 100 µM
